The campaign covered roughly 310,000 compounds. About 2,200 (0.71%) showed an effect of 50% or more. Effects have a minus sign here. Some of the results follow.
molecular target: human ether-à-go-go-related gene (hERG) potassium channel (human, UniProt Q12809); assay: primary screen, population patch clamp on CHO cells stably expressing hERG
Sequence (Q12809 whole entry, looked up): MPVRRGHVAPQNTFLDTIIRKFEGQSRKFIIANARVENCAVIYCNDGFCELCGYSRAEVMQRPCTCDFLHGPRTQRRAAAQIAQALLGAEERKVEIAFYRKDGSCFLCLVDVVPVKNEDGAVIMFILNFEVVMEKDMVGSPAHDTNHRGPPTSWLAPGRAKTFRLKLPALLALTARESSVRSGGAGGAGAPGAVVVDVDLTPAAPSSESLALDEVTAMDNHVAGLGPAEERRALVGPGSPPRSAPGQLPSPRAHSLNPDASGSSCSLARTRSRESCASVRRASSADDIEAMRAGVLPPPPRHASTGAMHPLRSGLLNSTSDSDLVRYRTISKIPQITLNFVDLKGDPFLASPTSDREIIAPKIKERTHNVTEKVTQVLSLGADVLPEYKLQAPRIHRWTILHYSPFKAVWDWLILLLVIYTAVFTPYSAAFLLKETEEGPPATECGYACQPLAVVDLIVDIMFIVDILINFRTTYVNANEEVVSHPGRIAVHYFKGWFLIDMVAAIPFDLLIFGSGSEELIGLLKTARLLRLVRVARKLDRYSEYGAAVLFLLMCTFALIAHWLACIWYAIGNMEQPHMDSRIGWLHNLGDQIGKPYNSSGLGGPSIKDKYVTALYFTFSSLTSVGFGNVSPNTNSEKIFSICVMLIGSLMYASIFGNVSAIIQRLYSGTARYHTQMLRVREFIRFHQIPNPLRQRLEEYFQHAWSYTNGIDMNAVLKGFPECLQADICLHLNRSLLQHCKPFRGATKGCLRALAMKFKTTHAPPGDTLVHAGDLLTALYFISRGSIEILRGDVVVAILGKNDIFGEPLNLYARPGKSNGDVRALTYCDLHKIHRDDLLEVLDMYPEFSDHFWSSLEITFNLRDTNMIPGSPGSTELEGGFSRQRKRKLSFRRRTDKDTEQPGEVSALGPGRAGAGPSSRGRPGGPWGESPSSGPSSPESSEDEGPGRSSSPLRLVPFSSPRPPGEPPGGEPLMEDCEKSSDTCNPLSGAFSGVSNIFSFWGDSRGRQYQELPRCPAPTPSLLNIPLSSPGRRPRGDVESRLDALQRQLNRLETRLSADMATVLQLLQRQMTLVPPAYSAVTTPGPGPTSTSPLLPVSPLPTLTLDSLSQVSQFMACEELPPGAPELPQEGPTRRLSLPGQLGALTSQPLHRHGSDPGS

SMILES	hERG current change (%, negative = inhibition) at 1uM [%]
COCCCn1c(Cc2csc(Nc3ccc(F)cc3)n2)nnc1SCC(N)=O	-1.42
COc1ccccc1N1C(=O)CC(Sc2nc(C)cc(C)n2)C1=O (stereo not shown)	5.23
COCC(=O)Nc1nc(-c2ccc(C)cc2)c(C)s1	13.6
Nc1nc(SCc2ccccc2)[nH]c(=O)c1-c1ccccc1	6.71
O=[N+]([O-])c1cccc(-c2ccc(C(=S)N3CCOCC3)o2)c1	15.4
COc1ccc(-c2cc3ccccc3n2CC(O)Cn2nc(C)cc2C)cc1 (stereo not shown)	9.43
COc1ccc(S(=O)(=O)N(C(C)=O)c2ccc(OC(C)=O)c3ccccc23)cc1[N+](=O)[O-]	6.12
Cc1noc(C)c1COc1ccc(C(=O)N(C)CCOc2ccccc2)cc1	8.13
O=C(COc1ccc([N+](=O)[O-])cc1)Nc1ccccc1N1CCCC1	-4.71
CCCOc1ccc(OCCn2nc(C(=O)O)c3ccccc3c2=O)cc1	3.06
COc1cccc(C2C(C(=O)c3ccco3)=C(O)C(=O)N2CCN(C)C)c1OC (stereo not shown)	11.1
Cc1sc2ncnc(N3CCC(C(=O)NNC(=O)c4ccccc4Cl)CC3)c2c1C	2.16
Cc1ccc(NC(=O)CSc2ccc3c(c2)OCCO3)nc1	13
COc1ccc(/C=N/NC(=O)c2ccc(NC(C)=O)cc2)cc1COc1ccc(F)cc1F	14.2
O=C(c1cc([N+](=O)[O-])ccc1N1CCCC1)N1CCCC1	-0.903
COC(=O)c1cc(S(=O)(=O)C(C)C)c(S(C)=O)s1 (stereo not shown)	15.1
O=C(N/N=C/c1cccc([N+](=O)[O-])c1)c1ccc(CN2CCOCC2)cc1	7.54
O=C(NCCOc1ccc(F)cc1)C1CCC(=O)N(CCc2ccccn2)C1 (stereo not shown)	5
O=C(Nc1ccccc1N1CCCC1)C1CCN(S(=O)(=O)c2ccccc2C(F)(F)F)CC1	2.51
COc1ccc(C(=O)COc2ccccc2C(=O)Nc2ccccc2)cc1	12.5
COc1ccc(OCC(=O)N/N=C2\CCCc3ccccc32)cc1	5.66
COc1ccccc1N1CCN(C(CNS(=O)(=O)c2cc(F)ccc2F)c2cccnc2)CC1 (stereo not shown)	-2.68

SMILES	hERG current change (%, negative = inhibition) at 1uM [%]
CCN1CCN(Cc2cccc(Oc3ccccc3)c2)CC1	-12.6
O=S(=O)(Nc1nc2ccccc2nc1NCCO)c1cccc(Cl)c1	9.43
CCOc1ccc(N(CC(=O)NC2CCCCCC2)S(=O)(=O)c2c(C)[nH]c(=O)[nH]c2=O)cc1	13.4
CCn1c(SCC(=O)NC2=NCCS2)nnc1C(C)NC(=O)c1ccccc1F (stereo not shown)	13.7
COc1ccc(C(=O)N[C@H](C(=O)Nc2sccc2C(N)=O)C(C)C)cc1	11.7
CCC(c1nnc(SCC(=O)Nc2nnc(-c3ccccc3)o2)n1Cc1ccccc1)N(C)C (stereo not shown)	11.2
CN(C)S(=O)(=O)N1CCN(c2ccc([N+](=O)[O-])c(NC3CC3)c2)CC1	10.4
CC(=O)c1ccc(O)c(CC=C(C)C)c1O	6.25
CC(=O)c1ccc(NC(=O)C2CCCN(C(=O)c3ccc(Cl)cc3)C2)cc1 (stereo not shown)	2.59
COc1cc(/C=N/NC(=O)c2ccc(CSc3nc4ccccc4[nH]3)cc2)cc(OC)c1OC	1.08
CCOC(=O)c1cnc(-n2nc(C)cc2C)nc1Oc1ccc(C(=O)OC)cc1	13.1
COc1ccc(F)cc1C(=O)C1CCCN(Cc2cccn2-c2ccccn2)C1 (stereo not shown)	-89.9
CCCNC(=O)C1(CC2CC(c3ccccc3)=NO2)CCN(C(=O)C2(C)CC2)CC1 (stereo not shown)	10.3
Cc1cc(C)nc(SCC(=O)N2CCOCC2)n1	4.62
COc1ccc(-c2[nH]ncc2CNCC(C)(C)N2CCOCC2)cc1F	12.4
O=C1C2CC=CCC2C(=O)N1Cc1ccccc1Cl (stereo not shown)	13.3
Cc1ccc(S(=O)(=O)N2CCC(C(=O)Nc3nnc(-c4ccco4)s3)CC2)cc1	13.6
O=C(NCCc1ccccn1)c1cccnc1Oc1ccc(Cl)cc1	7.09
COc1ccc2nc(N)sc2c1	14.2
CC1=C(C#N)S(=O)(=O)C(C#N)C(c2ccccc2)C1 (stereo not shown)	16.1
COc1ccc(C2c3c(ccc4ccccc34)Oc3ncn4nc(Cc5ccc(OC)c(OC)c5)nc4c32)cc1 (stereo not shown)	2.05

Reference: publication PMC4336329 (PLoS ONE, 2015)
